The other results are listed elsewhere or left out. At the low end of the ranking, values are background and their order means little. The protein was read in a cell extract, so binding may be indirect.

The target of the test is T1, HNF4alpha2 (COS-7 nuclear extract) (UniProt P41235).
T1 sequence: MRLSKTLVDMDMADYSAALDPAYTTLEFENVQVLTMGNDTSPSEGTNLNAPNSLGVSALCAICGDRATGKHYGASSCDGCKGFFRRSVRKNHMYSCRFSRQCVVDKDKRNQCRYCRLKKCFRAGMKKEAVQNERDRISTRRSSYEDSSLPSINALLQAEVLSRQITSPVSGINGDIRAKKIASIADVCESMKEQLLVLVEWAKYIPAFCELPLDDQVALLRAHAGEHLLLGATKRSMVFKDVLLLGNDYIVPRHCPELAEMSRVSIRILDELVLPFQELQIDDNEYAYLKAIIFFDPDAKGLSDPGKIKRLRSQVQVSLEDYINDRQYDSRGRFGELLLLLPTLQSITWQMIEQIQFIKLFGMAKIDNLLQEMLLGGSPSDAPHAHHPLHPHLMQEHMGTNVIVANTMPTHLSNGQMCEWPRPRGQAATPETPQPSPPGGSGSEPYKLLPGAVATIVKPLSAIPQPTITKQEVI
The test is described as follows: protein-binding microarray. To be noted: COS-7 nuclear extract on double-stranded Agilent 4x180k PBM; binding buffer, salt, pH and temperature not given; high values mean tight binding; double strand, one strand shown; sequences stand for … in …GCCTAGGGAGATTAGAGTATCGGTCGA
For the sequence TAACAAACATTACTAACTGGACTTTATCTA, the binding signal (log2 normalized intensity) came to 2.61.
TGGAGGAGCTGAACTGTAACCTCAAAGGAG: the binding signal (log2 normalized intensity) was -1.13.
As to TTTGCCTGAACTTTAAACTGGTGTGTCTTG, the binding signal (log2 normalized intensity) was determined as 2.67.
For GAAAGGGGCCTCAGAGAAAGCCTGTTTGCT, the binding signal (log2 normalized intensity) is -1.22.
For the sequence TGAGGCCCCAGTGTCAATTCTCATTCATCC, the binding signal (log2 normalized intensity) is -0.225.
For GTGGCTAGAACCCAGGCACAGGTCCTACTC, the binding signal (log2 normalized intensity) was -1.22.
Turning to TCGGCTTCATTAGCAAATAACAAAGGGCAC, the binding signal (log2 normalized intensity) is 3.
For AAAATAGCCAAAATAAAGCAGCAAACCAGA, the binding signal (log2 normalized intensity) is -1.22.
As for GGGAGATCTTCAGTAAGAGGATTTCTTCGC, the binding signal (log2 normalized intensity) was -0.771.
With ATCAGCGTTGAGCCTTTTGTCCCAAGGAGA, the binding signal (log2 normalized intensity) is 1.05.
Turning to AAAAGTCTCAGGGGCCTTGCAATGAGGCGA, the binding signal (log2 normalized intensity) is -0.924.
Regarding GTGACTACCTGGTTAAAAGGACAACCTTCG, the binding signal (log2 normalized intensity) turned out to be 0.583.
As for TCTTGACATCTCTCTCTGCAGCTGAGTAGA, the binding signal (log2 normalized intensity) was -0.28.
As for CAGAGCTGTCGTCCCAGGGCAAAGGTCACC, the binding signal (log2 normalized intensity) was 7.59.
TCAGTTCCTATTTCAACATCCTCTCAGGTC: the binding signal (log2 normalized intensity) was found to be 2.06.
In the case of ACAGGAAAAAAAAAAATTACTGACCCTTGC, the binding signal (log2 normalized intensity) was 2.51.
For CTTTAAACTGGTGTGTCTTGCCTTTCCACC the value was 0.291; for CAGTGGCTGAGACAATGAGTGCTTCAGTCC, -0.213.
For CCAGATTCTCTCACTGCTCTGGCCACTCCC the value was -1.07.
With CTAGGCTCCAGGGCACTGCCCTTTGGAACC, the binding signal (log2 normalized intensity) is 6.71.
Regarding CACACACCTGTGCAAACATTGGTTGCAAAA, the binding signal (log2 normalized intensity) is -1.01.
For CCTGCAAGGATTGATCAGCACATGAAGGTC the value was 1.23; for CCTGCACCTGAACTTTGCTCTGTGACACAA, 4.04; for GAAGGCAGCCAAACAGAGGCTGAAATGGTT, -1.13.
Take TCCCTCCGTGGGGCTCCTTTGATCTCCGTG: the binding signal (log2 normalized intensity) amounted to 0.843.
With GGTATGTTTGTGATATTGTGAAATATATAT, the binding signal (log2 normalized intensity) turned out to be 2.03.
Turning to TCTCTTTTAGGCTGTCAGCCACCAAAGCAG, the binding signal (log2 normalized intensity) is -1.22.
In the case of AACATTTTTGCAACATGAGGAGCCAAGTTT, the binding signal (log2 normalized intensity) came to 0.767.
In the case of GAGCATCCAGATAAAGCTGAAGAAAGCAGG, the binding signal (log2 normalized intensity) is -1.17.
Consider CCAATGGCTAAGGTCACCATGACCATAAAC, for which the binding signal (log2 normalized intensity) was -1.12.
In the case of TCTGCAGACATGGACTCTGGGATCTCAGGG, the binding signal (log2 normalized intensity) worked out at 1.24.
Turning to CTGTGCCATGCTTTTCAGTGCAAGGGACCT, the binding signal (log2 normalized intensity) was 0.993.
For CAGTTTGACCTTTGCATTCTTACCCAAGCC, the binding signal (log2 normalized intensity) came to 4.4.
On to CAGTGGACTTTGTCCTTCATCTATCTCCTT, for which the binding signal (log2 normalized intensity) worked out at 5.04.
With AGGCTGGGGCCCCATCGACCTTTGCTCCCG, the binding signal (log2 normalized intensity) was 9.6.
With AGGCCATAGGGAAAGATAAAAAAGTTCCAG, the binding signal (log2 normalized intensity) is -1.16.
Consider GCTAATGAGCACATTCTTCAATATCAGTGG, for which the binding signal (log2 normalized intensity) turned out to be 0.487.
For the sequence CACTGGAGGTTGAATTCCAAAGGTTATTTT, the binding signal (log2 normalized intensity) was 3.4.
For the sequence ATAGATAAGCACACTAAGGCTAAAGATTAC, the binding signal (log2 normalized intensity) was -1.13.
The figure for CCCACCTCCGGCCGGGAAGATGCCAGCCCC is 2.12; for TCAGCGGCCCTGTGCTGCCCCCGATAGCAC it is 4.28; for TTTATTCAGGTGGCCACTGGCCCAGCGGAT it is 0.261.
Regarding AAACATTAGCCAGGATCAGATTTGATAGCT, the binding signal (log2 normalized intensity) is -1.14.
The figure for TCACATACCAGTAAAAACAACTGCCACTTA is -1.13.
On to TGAAGTCATATTGAACTCACTGACTTCCAT, for which the binding signal (log2 normalized intensity) worked out at 1.12.
Take AAGACTCAGTCGGCTGTCAAATCACTGAAG: the binding signal (log2 normalized intensity) is -0.94.
In the case of AAGAAGAGCCCAGACAAGCATTCTGCTGAA, the binding signal (log2 normalized intensity) is -0.94.
The figure for GGGGGTGAGTCAGTCCCCAGCAATTGGGAA is -0.702.
For AATGGACAACGGAAAGACAGAGGTGAGGCT, the binding signal (log2 normalized intensity) is -1.13.
For GTGCAGTGATCAATCAGCAGCAAAGTCCTG the value was -1.08; for CCTAAGGCCTCCAGAAGGAATGCAGCCCTG, -1.18.
In the case of CCAAAATGTGTTAGGCAAGCAAACTGCAAA, the binding signal (log2 normalized intensity) was -1.08.
For ATATTTGCCAAGTGATAAGGAACCTAGGAA, the binding signal (log2 normalized intensity) is -1.09.
Turning to CCCTTCCTCGGTGGAGTTGACACAGACCTG, the binding signal (log2 normalized intensity) stood at 0.569.
As for TGCAGTATGCCCCCCCACCCCACACACACA, the binding signal (log2 normalized intensity) is 6.7.
In the case of GTATGTGAATGCCTGGGCATGGCTGTGTTC, the binding signal (log2 normalized intensity) stood at 1.05.
For CGGAGCGCGCGGGAGGAGGAGACAAAGGCC, the binding signal (log2 normalized intensity) was 2.27.
GGGGGGTGGGGTGGAAGCTATGCCTGAGGC: the binding signal (log2 normalized intensity) was -1.11.
Take GAACCAAGAGAGCCATTGGTGTAACTCTGG: the binding signal (log2 normalized intensity) was -0.929.
Turning to AAGGCCAAGCCAGTTTCCAGGGAGGAGAGA, the binding signal (log2 normalized intensity) is -1.11.
Regarding CTTAAATTGTGCTGTGTCAGAGTTGTCCTG, the binding signal (log2 normalized intensity) came to 1.9.
Turning to GAATGGAGACACACCTGCGGTGACTGGAAG, the binding signal (log2 normalized intensity) is -1.21.
Regarding CTAAACCAGGATCCAGTCCTCACCCAGAAC, the binding signal (log2 normalized intensity) is 0.786.
On to TGGCAATGGCTGCAGCTCTTCCACGTGAGA, for which the binding signal (log2 normalized intensity) was -1.11.
For the sequence AACAAAAACCAAATCACAATTTTCAAGAAC, the binding signal (log2 normalized intensity) was -1.14.
In the case of TCTGGCTTCTCGTGAGTATTTTTTCAACAT, the binding signal (log2 normalized intensity) was found to be 0.665.
Turning to AAAGAGTACACAAAGGTATCAGGGCTCAGG, the binding signal (log2 normalized intensity) is -1.08.
As for GACAAAGTACAGAGCAGGTGCTCGGTGAGT, the binding signal (log2 normalized intensity) is -1.25.
For the sequence TAACTCTCCAAATTCCAGGATCCAAGATCC, the binding signal (log2 normalized intensity) is -1.09.
The figure for TGAGACTGCCTCAAACAGCTTCGCCTCCTC is -1.11.
As for CTTCAAAGGAGTGGAGGAAGGAAGAAGTGT, the binding signal (log2 normalized intensity) was 0.537.
The figure for TCCTAGTCTTTAGAGTAACCATTCTTTCTG is 0.183; for CCACAAGGGGGGAGCACCTCCCAACGTGCC it is -1.22; for GTTTAGTGAGCTGTCTAATTTTGCACAGCC it is -1.22.
GCAGAAGGTCAGGTGAATCAACGATAAGGG: the binding signal (log2 normalized intensity) was -1.18.
For GATCCTCCCACTTCAGCCTCCCGAGTAGTT the value was 2.81; for CTAGACCCACATCCTGTCAGACCAAGGCTG, -1.07; for AAGTGGCTCACCCAAGTCACACAGTTAGAA, -0.782.
With CAAAGTGGAATTTGAACCTACACCTATGTG, the binding signal (log2 normalized intensity) was 3.62.
Regarding AAACTTCCACTAACTTGAGTGTGCACCCTG, the binding signal (log2 normalized intensity) worked out at 1.65.
Take ACCAGAGGGAAGAGATCATGGCCGATCGAC: the binding signal (log2 normalized intensity) is -1.19.
For TTGAAGCAGAGTGTCCCATATCACATTTTA, the binding signal (log2 normalized intensity) turned out to be 0.955.
The figure for CCACAGCCCAACTCGGAGGACTGAGCCCGC is -1.07.
Consider TATCTTCAAAGCCAGCAACGGTGAGTCAAG, for which the binding signal (log2 normalized intensity) was 0.983.
For the sequence TGATCTACAGTCAGAGGCCTGAAGGCCCCC, the binding signal (log2 normalized intensity) turned out to be 1.63.
The figure for GAGAAAGGGGCTTAGGGAGGGTGAAGGTCA is 2.39; for CCCCAGGCTGAGCGTGAACACCGGCCCCCT it is 4.11; for GACTGGAATGTCAAAGGGACAGCACTGGCA it is -1.1.
On to TTTGTCCTGGCACAACTGGATGGTGTTTGA, for which the binding signal (log2 normalized intensity) was 1.32.
On to CCTAGCTGACTGCGTCAGGCAGTTGGAATT, for which the binding signal (log2 normalized intensity) is 0.515.
Consider TGGTGCTATCTTTGCTCACTGTAACCTTTG, for which the binding signal (log2 normalized intensity) came out at 3.78.
Regarding GTGAATGGATGGATCCGCAGCCAGGGCTGT, the binding signal (log2 normalized intensity) was -1.22.
Take TTAGTCTTATCTGAGGTGCCCTTACATTTT: the binding signal (log2 normalized intensity) worked out at 1.69.

For the origin of these results see publication PMC10726135.
